According to PubChem BioAssay AID463173 (ICCB-Longwood Screening Facility, Harvard Medical School, 2010):
Among all 52,000 compounds or so, about 4,300 (8.3%) were called active. Rule as the data show it: active = survival mostly below about 52% (no sharp cut-off); inactive = mostly above about 56%. The list shows a part of the results.

System: DeltatarO mutant
Experiment: growth inhibition of S. aureus wild type versus tarO mutant, primary screen, teichoic acid synthesis inhibitors, RN4220, OD600 (AID 463173)
Details: OD600, 18 h, hits give low values, screened at 18.75 µg/mL (by protocol)

SMILES	survival
N#Cc1cccc(NC(=O)CCNS(=O)(=O)c2ccc3c(c2)CCN3C(=O)C2CC2)c1	inactive: 82%
COc1ccc2[nH]c(=O)c(CN(Cc3cccnc3)C(=O)Nc3ccccc3)cc2c1	inactive: 93%
Cc1ccc(S(=O)(=O)c2nnn3c2nc(N2CCC(C(N)=O)CC2)c2cc(Cl)ccc23)cc1C	inactive: 72%
Cc1ccc(NS(=O)(=O)c2c(C)nc3sc(C)cn3c2=O)c(C)c1	inactive: 83%
CS(=O)(=O)N1CCC(C(=O)NCC2CCCO2)CC1 (stereo not drawn)	inactive: 100%
Cc1nc2c(c(C)nn2C(C)(C)C)c(C)c1CCC(=O)Nc1ccc(Br)cc1Br	inactive: 74%
N#Cc1ccc(NC(=O)c2nc3ncccn3n2)cc1	inactive: 80%
Cc1ccccc1CNC(=O)c1ccc(CN2CC(=O)N3CCCCC3C2=O)cc1 (stereo not drawn)	inactive: 109%
CCc1nnc2c3ccccc3nc(N3CCN(c4cc(C)ccc4C)CC3)n12	inactive: 73%
COc1ccc(CNC(=O)C(=O)Nc2cc(Cl)ccc2OC)cc1	inactive: 162%
Cc1ccccc1CN1C(=O)c2ccccc2S(=O)c2ccc(C(=O)NCc3ccc4c(c3)OCO4)cc21 (stereo not drawn)	inactive: 71%
COc1cccc(CNC(=O)CCC(=O)N2CC(C)Sc3ccccc32)c1 (stereo not drawn)	active: 51%
COc1ccc(N2CCN(S(=O)(=O)CCNC(=O)c3c(F)cccc3Cl)CC2)cc1	inactive: 78%
CC(=O)Nc1cc(C(=O)Nc2ccc3c(c2)N(C)C(=O)c2ccccc2S3)ccc1C	inactive: 94%
CCCc1nn2c(=O)cc(COC(=O)c3ccco3)nc2s1	inactive: 77%
COc1ccc(CCNC(=O)Cn2c(=O)c3cccn3c3ccccc32)cc1OC	inactive: 49%
COc1cccc(-c2noc(C3CCCN(C(=O)Cc4ccccc4)C3)n2)c1 (stereo not drawn)	inactive: 105%
Cc1c(C(=O)NCc2ccc(F)cc2)sc2nc(-c3ccc(F)cc3)cn12	inactive: 80%
CC(=O)Nc1c(C)nn(-c2ccccc2)c1N1CCC(C(=O)Nc2cccc(C(F)(F)F)c2)CC1	inactive: 76%
CCCCOc1ccccc1C1CC(=O)Nc2cc(OC)c(OC)cc21 (stereo not drawn)	inactive: 66%
CCOC(=O)Cn1c(=O)n(CC2CCCO2)c2nc(-c3ccc(CC)cc3)nc(C(N)=O)c21 (stereo not drawn)	inactive: 72%
O=C(CSc1ncc2c(n1)-c1ccc(Cl)cc1N(Cc1ccccc1)S2(=O)=O)Nc1ccccc1C(F)(F)F	inactive: 83%

SMILES	survival
CCC(=O)Nc1cc2nn(-c3ccc(C)cc3)nc2cc1C	inactive: 58%
Cc1ccc(NC(=O)[C@@H](c2ccccc2)N2Cc3ccccc3C2=O)cc1F	inactive: 61%
CCN(CC)CCCNC(=O)CN1C(=O)COc2ccc(S(=O)(=O)N3CCC(C)CC3)cc21	inactive: 101%
CC(Nc1oc(-c2ccc(COc3ccc(Cl)cc3)o2)nc1C#N)c1ccccc1 (stereo not drawn)	inactive: 65%
O=C(NCc1ccccc1)c1ccc2c(c1)nc1n2CCOC1	inactive: 84%
COCCNC(=O)CSc1nnc2[nH]c(=O)cc(C)n12	inactive: 55%
CCN(CC)c1ccc(NC(=O)CN2C(=O)c3cccnc3Oc3ccc(Cl)cc32)c(C)c1	inactive: 80%
CCc1ccccc1NS(=O)(=O)c1cc(Br)cc2c1N(C(=O)C1CC1)CC2	active: 52%
CCc1cccc(NS(=O)(=O)c2cc(-c3cnc(C)o3)ccc2OC)c1	inactive: 78%
CCOC(=O)Cn1c(=O)n(CC2CCCO2)c2nc(-c3c(F)cccc3Cl)nc(C(N)=O)c21 (stereo not drawn)	inactive: 84%
Cc1cc(C)cc(N(CC(=O)NCc2ccccc2Cl)S(=O)(=O)c2c(C)[nH]c(=O)[nH]c2=O)c1	inactive: 118%
CCn1cc(S(=O)(=O)c2ccc(C)cc2C)c(=O)c2cc(F)c(N3CCCCC3)cc21	inactive: 91%
COC(=O)c1c(NC(=O)/C=C/c2ccc(OC)c(OC)c2)sc2c1CCC2	inactive: 51%
CC1(C)Cc2nc(N)c(C#N)cc2CO1	inactive: 79%
CN(C)C(=O)Cn1c(SCC(=O)NC2CCCCC2)nc2ccccc21	inactive: 100%
Cc1noc(Cn2c(=O)c3ccccc3n(CC(=O)Nc3ccc(C(C)C)cc3)c2=O)n1	inactive: 115%
CCCCC1CCC(CCCC(C)CCC(=O)O)CC1 (stereo not drawn)	active: -4%
COc1ccc(-n2cc(-c3ccc4c(c3)OCO4)n(CC(=O)Nc3cccc(C)c3)c2=O)cc1	inactive: 67%
Cc1cccc(NC(=O)Cn2cc(S(=O)(=O)Cc3ccccc3Cl)c3ccccc32)c1	inactive: 75%
COc1cccc(-c2n[nH]c3c2C(c2ccccn2)N(C)C3=O)c1 (stereo not drawn)	inactive: 49%
O=C(CC1N=C2c3ccccc3N=C(SCC(=O)Nc3ccc(F)cc3)N2C1=O)NCc1ccc2c(c1)OCO2 (stereo not drawn)	inactive: 67%
